This note sets out measurements from the supplement of paper PMC4723716.

SMILES strings stand for the structures. ± gives the uncertainty stated by the source. In all, about 9,900 compounds were measured (“viability index relative to DMSO control”: median about 1, lowest 2% from about 0.85 on). Some of the results follow.

This test concerns Plasmodium falciparum NF54 stage V gametocytes. Kind of test: viability index relative to DMSO control (fraction); higher = less gametocyte killing. Particulars: 2.5 µM, library set: Broad Institute DOS, incubation time: 72 h. How it is done: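 Broad DOS informer set and blood-stage-active DOS compounds screened in duplicate at 2.5 µM against P. falciparum NF54 stage V gametocytes with the serum-free one-step SaLSSA (1536-well): 72 h at 37 °C under low oxygen, then saponin lysis and MitoTracker Red CMXRos staining, with high-content imaging. Viability index = viable-object count divided by the plate mean of DMSO wells (0 = killed, about 1 = inactive).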
Molecule `C[C@H]1CN([C@@H](C)CO)C(=O)c2cc(NC(=O)C3CC3)ccc2O[C@@H]1CN(C)S(=O)(=O)c1ccccc1` yielded a viability index of 0.986 ± 0.061.
As to `COc1ccc(S(=O)(=O)Nc2ccc3c(c2)C(=O)N([C@@H](C)CO)C[C@H](C)[C@H](CN(C)S(=O)(=O)c2ccc(Cl)cc2)OCCCC[C@H](C)O3)cc1`, the viability index amounted to 0.989 ± 0.11.
Regarding `COCC#Cc1ccc([C@H]2[C@@H](CO)N3C(=O)CN(C(=O)C4CCCCC4)C[C@@H]23)cc1`, the viability index was 1.03 ± 0.058.
Molecule `COCCNC(=O)C[C@H]1CC[C@H]2[C@H](COc3ccc(NC(=O)Nc4cccc(F)c4)cc3C(=O)N2C)O1` yielded a viability index of 1.09 ± 0.098.
`CO[C@H]1CN(C)C(=O)c2cc(NC(=O)C3CC3)ccc2OC[C@@H](C)N(Cc2cc(F)ccc2F)C[C@H]1C` registered a viability index of 0.943 ± 0.04.
For `C[C@@H]1CCCCO[C@H](CN(C)S(=O)(=O)c2ccc(F)cc2)[C@H](C)CN([C@@H](C)CO)C(=O)c2cc(N(C)C)ccc2O1`, the viability index came to 1.06 ± 0.041.
As to `O=C(NC[C@@H]1[C@@H](c2ccccc2)[C@@H](CO)N1Cc1cccnc1)c1ccccn1`, the viability index turned out to be 1.03 ± 0.052.
Take `CCS(=O)(=O)Nc1ccc2c(c1)C(=O)N(C)[C@H]1CC[C@@H](CC(=O)N[C@H]3CCN(Cc4ccccc4)C3)O[C@@H]1CO2`: the viability index stood at 1.12 ± 0.17.
The figure for `N#C[C@@H]1[C@H](c2ccc(-c3cccc(F)c3)cc2)[C@@H](CO)N1C(=O)CN1CCOCC1` is 0.984 ± 0.13.
Molecule `CO[C@H]1CN(C)C(=O)c2cc(NC(=O)NC3CCCCC3)ccc2OC[C@H](C)N(CC2CCOCC2)C[C@@H]1C` returned a viability index of 1.05 ± 0.026.
With `CO[C@@H]1CC[C@H]2CCOc3c(C#N)cccc3C(=O)N(C)CCCC(=O)N(C)C[C@H]1O2`, the viability index turned out to be 1.01 ± 0.046.
Take `O=C(CC1CC1)N1CC2(C1)[C@H](c1ccccc1)[C@H](CO)N2Cc1ccccn1`: the viability index came out at 1.07 ± 0.12.
As for `CC(=O)N1[C@H](CO)[C@@H](c2ccccc2)C12CN(S(=O)(=O)c1ccccc1)C2`, the viability index was found to be 1.11 ± 0.03.
As to `COCC#Cc1ccc([C@@H]2[C@@H](CO)N3C(=O)CN(C(=O)c4ccncc4)C[C@H]23)cc1`, the viability index stood at 1.12 ± 0.087.
Consider `COc1ccc([C@H]2C/C=C/C[C@H](C)Oc3ccccc3C(=O)N(C)[C@@H](Cc3ccccc3)C(=O)N2)c(OC)c1.COc1ccc([C@H]2C/C=C\C[C@H](C)Oc3ccccc3C(=O)N(C)[C@@H](Cc3ccccc3)C(=O)N2)c(OC)c1`, for which the viability index is 0.861 ± 0.046.
The molecule `C[C@H]1CN([C@@H](C)CO)C(=O)Cc2cc(NS(=O)(=O)c3cccs3)ccc2O[C@H]1CN(C)CC1CCCCC1` had a viability index of 1.02 ± 0.14.
Turning to `CN(C[C@H]1N[C@@H](CO)[C@@H]1c1ccccc1)C(=O)c1ccccn1`, the viability index came out at 1.1 ± 0.059.
Molecule `O=C(NCC[C@@H]1CC[C@@H](NS(=O)(=O)c2ccc(F)cc2)[C@H](CO)O1)c1ccc2c(c1)OCO2` showed a viability index of 0.973 ± 0.045.
Molecule `CNC[C@H]1OCCCC[C@@H](C)Oc2ccc(N)cc2C(=O)N([C@H](C)CO)C[C@H]1C` displayed a viability index of 1.16 ± 0.2.
`C[C@@H]1CCCCO[C@H](CN(C)C(=O)Nc2ccccc2)[C@H](C)CN([C@H](C)CO)C(=O)c2cc(NC(=O)Nc3ccccc3)ccc2O1` came in with a viability index of 0.966 ± 0.095.
With `COc1cccc(CN2C[C@]3(CN(CC4CCOCC4)C3)c3c([nH]c4cc(OC)ccc34)[C@H]2CO)c1`, the viability index was determined as 1.09 ± 0.1.
Molecule `O=C(Nc1cccc(F)c1)N1C[C@@H]2[C@H](c3ccccc31)[C@H](CO)N2C(=O)Cc1ccccn1` had a viability index of 1.05 ± 0.095.
Turning to `CCC(=O)Nc1ccc2c(c1)C(=O)N(C)C[C@H](OC)[C@H](C)CN(C(=O)Cc1cccnc1)[C@H](C)CO2`, the viability index is 1.07 ± 0.02.
The figure for `C[C@H](CO)N1C[C@H](C)[C@@H](CN(C)Cc2ccccc2)OCc2cn(nn2)CCCC1=O` is 1.01 ± 0.04.
The figure for `CO[C@@H]1CN(C)C(=O)c2cc(NC(=O)Nc3cc(F)ccc3F)ccc2OC[C@@H](C)NC[C@H]1C` is 1.105 ± 0.0072; for `O=S(=O)(c1ccc(F)cc1)N1C[C@@H]2[C@H](c3ccccc31)[C@@H](CO)N2Cc1ccccc1Cl` it is 0.898 ± 0.077.
The figure for `CCCC(=O)Nc1ccc2c(c1)C(=O)N(C)[C@H]1CC[C@H](CC(=O)N3CCCCC3)O[C@@H]1CO2` is 1.05 ± 0.091; for `CCc1cnc(N2[C@@H](C#N)[C@H](c3ccc(C#Cc4ccccc4F)cc3)[C@@H]2CO)s1` it is 0.959 ± 0.07; for `C[C@@H](NC(=O)C[C@@H]1C[C@@H]2c3cc(NS(=O)(=O)c4ccc(F)cc4)ccc3O[C@@H]2[C@H](CO)O1)c1ccccc1` it is 1 ± 0.023.
`O=C(C[C@@H]1C=C[C@H](NC(=O)C2CCC2)[C@@H](CO)O1)NC1CCCCC1` showed a viability index of 1.03 ± 0.031.
In the case of `C/C=C/c1ccc2n(c1=O)C[C@@H]1[C@@H](CO)[C@H](C(=O)N3CCOCC3)[C@H]2N1CC1CCCC1.C/C=C\c1ccc2n(c1=O)C[C@@H]1[C@@H](CO)[C@H](C(=O)N3CCOCC3)[C@H]2N1CC1CCCC1`, the viability index stood at 1 ± 0.062.
Then `C[C@H](CO)N1C[C@H](C)[C@@H](CN(C)C(=O)Nc2ccc(C(F)(F)F)cc2)Oc2ncc(C3=CCCC3)cc2C1=O`, with 1.07 ± 0.011; and `COc1ccc2c3c([nH]c2c1)[C@@H](CO)N(Cc1ccc(F)cc1)C[C@]31CN(C)C1`, with 0.936 ± 0.018.
For the molecule `CCC(=O)N1C[C@@H](C)[C@H](OC)CN(C)C(=O)c2cc(NC(=O)Nc3ccc(Cl)cc3)ccc2OC[C@@H]1C`, the viability index was found to be 1.03 ± 0.0041.
`CS(=O)(=O)N1[C@H](CO)[C@@H](c2ccccc2-c2ccccc2F)[C@@H]1C#N` showed a viability index of 1.17 ± 0.081.
The molecule `CN1C(=O)c2cc(NC(=O)Nc3ccc(Cl)cc3)ccc2OC[C@@H]2O[C@@H](CC(=O)NCCN3CCCCC3)CC[C@@H]21` displayed a viability index of 0.993 ± 0.13.
Regarding `CO[C@H]1CN(C)C(=O)c2cc(NC(C)=O)ccc2OC[C@H](C)N(C(=O)Cc2ccccn2)C[C@H]1C`, the viability index worked out at 1.15 ± 0.084.
`CC(C)(C)[S@](=O)N1Cc2cc(C(=O)N3CCOCC3)nc(-c3cccc(-c4ccccc4F)c3)c2[C@@H]1CCO` showed a viability index of 1.07 ± 0.044.
Then `CN1C(=O)c2cc(NC(=O)Cc3cccs3)ccc2OC[C@H]2O[C@H](CC(=O)N[C@@H]3CCN(Cc4ccccc4)C3)CC[C@@H]21`, with 1.1 ± 0.11; and `COc1ccc(C[C@@H]2CCn3cc(nn3)COC[C@@H](c3ccccc3)NC2=O)cc1`, with 1.02 ± 0.013; and `COc1ccc(C(=O)N2C[C@@H]3[C@H](c4ccccc42)[C@@H](CO)N3C(=O)NC(C)C)cc1`, with 1.06 ± 0.12.
For `N#C[C@H]1[C@@H](c2ccccc2)[C@H](CO)N1C(=O)c1cc(Cl)cc(Cl)c1`, the viability index is 1.1 ± 0.14.
Turning to `COc1ccccc1NC(=O)N1C[C@H](O)COC[C@@H]2O[C@H](CC(=O)N3CCC(Cc4ccccc4)CC3)CC[C@H]21`, the viability index was found to be 1.1 ± 0.022.
Molecule `COc1ccc2c3c([C@@H](CO)N(C[C@]33CCN(Cc4nccs4)CC3)C(=O)NC(C)C)n(C)c2c1` had a viability index of 1 ± 0.11.
Then `C[C@@H]1CCCCO[C@@H](CN(C)S(C)(=O)=O)[C@H](C)CN([C@@H](C)CO)C(=O)c2cc(NC(=O)NC3CCCCC3)ccc2O1`, with 1.12 ± 0.11; and `CCCC(=O)Nc1ccc2c(c1)C(=O)N(C)C[C@@H](OC)[C@@H](C)CN(C(=O)c1ccccn1)[C@H](C)CO2`, with 0.989 ± 0.16; and `CN(C)C(=O)C[C@H]1CC[C@@H]2[C@H](COC[C@H](O)CN2C(=O)C2CCOCC2)O1`, with 1.07 ± 0.1.
`COc1ccc2c3c([nH]c2c1)[C@@H](CO)N(Cc1ccc(Cl)cc1)C[C@]31CCN(Cc2nccs2)CC1` came in with a viability index of 0.814 ± 0.015.
With `O=C(c1ccccc1F)N1C[C@@H]2[C@H](c3ccccc31)[C@@H](CO)N2C(=O)Nc1ccccc1`, the viability index came out at 1.03 ± 0.026.
The figure for `CCCC(=O)N1CC[C@@]2(CC1)CN(Cc1ccc(Cl)cc1)[C@H](CO)c1[nH]c3cc(OC)ccc3c21` is 0.873 ± 0.16; for `CCCNC(=O)N1[C@@H](CO)[C@@H](c2ccccc2)C12CN(CCC(F)(F)F)C2` it is 1.133 ± 0.01.
In the case of `CCNC(=O)c1cc2c(c(-c3cccc(-c4ccccc4F)c3)n1)[C@H](CCO)N(C(=O)CC1CC1)C2`, the viability index was found to be 1.05 ± 0.051.
`COCC#Cc1ccc([C@H]2[C@H]3CN(Cc4cccnc4)CCCCN3[C@H]2CO)cc1` had a viability index of 1.03 ± 0.07.
Then `CO[C@H](CN(C)C(=O)C1CCOCC1)[C@@H](C)CN([C@H](C)CO)S(=O)(=O)c1ccccc1`, with 1.15 ± 0.045; and `C[C@@H]1CN([C@@H](C)CO)S(=O)(=O)c2ccc(-c3cncnc3)cc2O[C@@H]1CN(C)C(=O)NC1CCCC1`, with 0.973 ± 0.019.
The figure for `COCC(=O)Nc1ccc2c(c1)C(=O)N(C)[C@H]1CC[C@@H](CC(=O)NC3Cc4ccccc4C3)O[C@@H]1CO2` is 1.16 ± 0.13.
With `O=C(NCC1CC1)[C@@H]1[C@@H](CO)[C@@H]2Cn3c(ccc(-c4ccccc4F)c3=O)[C@H]1N2Cc1cncnc1`, the viability index stood at 1.05 ± 0.02.
For the molecule `O=C(C[C@H]1CC[C@@H]2[C@H](COC[C@@H](O)CN2C(=O)c2cnccn2)O1)NCc1ccc(Cl)cc1`, the viability index came to 1.02 ± 0.075.
In the case of `COCCNC(=O)C[C@@H]1CC[C@H]2[C@@H](COC[C@@H](O)CN2C(=O)c2cc(Cl)cc(Cl)c2)O1`, the viability index is 1.05 ± 0.019.
With `COc1ccc(S(=O)(=O)N2C[C@H](O)COC[C@@H]3O[C@H](CC(=O)N[C@H]4CCN(Cc5ccccc5)C4)CC[C@H]32)cc1`, the viability index amounted to 0.995 ± 0.11.
Turning to `CO[C@H]1CN(C)C(=O)c2cc(NC(=O)C3CCCCC3)ccc2OC[C@H](C)N(C(=O)c2ccccc2)C[C@@H]1C`, the viability index turned out to be 1.04 ± 0.04.
For the molecule `C/C=C/c1ccc([C@@H]2[C@@H](CO)N(C(=O)C3CCC3)C23CN(C(=O)NC(C)C)C3)cc1`, the viability index stood at 1.059 ± 0.0085.
Molecule `COCC(=O)N1CC[C@@H]2[C@@H](CO)N(C)c3ccc(-c4cccc(F)c4)cc3[C@@H]21` gave a viability index of 1.12 ± 0.016.
As to `O=C(c1ccccc1)N1[C@H](CO)[C@H](c2ccccc2)C12CN(Cc1nccs1)C2`, the viability index is 1.08 ± 0.018.
`CS(=O)(=O)N1CC(=O)N2[C@H](CO)[C@H](c3ccc(C#CCC4CCCC4)cc3)[C@@H]2C1` registered a viability index of 1.05 ± 0.037.
As for `COc1cccc(S(=O)(=O)Nc2ccc3c(c2)C(=O)N(C)[C@@H]2CC[C@H](CC(=O)NCC4CCCCC4)O[C@@H]2CO3)c1`, the viability index came out at 1.01 ± 0.026.
The molecule `CCCC#Cc1cnc2c(c1)C(=O)N([C@@H](C)CO)C[C@H](C)[C@H](CN(C)C(=O)Nc1cc(F)ccc1F)O2` registered a viability index of 1.02 ± 0.096.
Turning to `CCCNC(=O)N1[C@H](CO)[C@@H](c2ccccc2)C12CN(CCC(F)(F)F)C2`, the viability index was 1.1 ± 0.029.
The molecule `COc1ccc(S(=O)(=O)N(C)C[C@@H]2Oc3c(NC(=O)c4nc5ccccc5s4)cccc3C(=O)N([C@H](C)CO)C[C@@H]2C)cc1` displayed a viability index of 0.951 ± 0.047.
